# Measured values reported in ChEMBL document CHEMBL4888484, “Replenishing the malaria drug discovery pipeline: Screening and hit evaluation of the MMV Hit Generation Library 1 (HGL1) against asexual blood stage Plasmodium falciparum ,using a nano luciferase reporter read-out” (2022).
# Out of some 4,800 compounds screened, about 410 (8.5%) showed an effect of 50% or more. Some of the results follow.
# Test system: Plasmodium falciparum
# Assay: Confirmatory screen in NF54 pLDH assay, in single point, at 2uM, 72h
# Assay type: functional, Erythrocyte
# Conditions: timepoint 72 hour
row,Compound,% Inhibition [%]
1,CCCn1nc(-n2cnnc2)c(NS(=O)(=O)c2ccc(Br)cc2)c1C,11
2,O=C(Cn1cccn1)N1CC(c2nc(-c3ncccn3)no2)C1,10
3,COc1cc(=O)c(C(=O)N2CCC(C(N)=O)CC2)nn1-c1ccc(F)c(F)c1,13
4,CCOc1cccc(-c2ccc3nc(-c4cccc(OC)c4)c(CCC(=O)NCCc4ccc(OC)c(OC)c4)n3c2)c1,1
5,Cc1cccc(N(C)C(=O)c2cc(-c3cccc(Cl)c3)[nH]n2)c1,10
6,CCC1CC(CC(=O)NS(=O)(=O)c2ccnn2C)CCO1 (centres undefined),0
7,CCc1ccccc1NC(=O)c1sccc1S(=O)(=O)N1CCc2ccccc2C1,12
8,CCc1cc(CC)c(-c2cc(-c3ccccc3)on2)c(CC)c1-c1cc(-c2ccccc2)on1,20
9,Cc1noc2nc(C3CC3)cc(C(=O)N3CCC[C@H](C)CC3)c12,-5
10,O=c1[nH]nc(-c2ccc3ccccc3c2)c2conc12,-1
11,CC(C)Oc1cccnc1C(=O)N(C)c1cnn(C)c1,10
12,CN(Cc1ccc(N2CCOCC2)cc1)S(=O)(=O)c1ccc2c(c1)OCCCO2,14
13,O=C(NCCC(=O)N1CCCCCC1)c1cc(Cl)c2c(c1)OCCCO2,3
14,Cc1ccc(NC(=O)C2C3NC(=O)N(c4ccccc4)C2(C)Oc2ccc(C)cc23)c(C)c1 (centres undefined),-9
15,O=C(c1cc(F)c(F)cc1Cl)N1CCC2CCC(C1)N2 (centres undefined),-18
16,COc1ccc(S(=O)(=O)N[C@H]2CO[C@@H](CN3CCC(F)(F)C3)[C@@H]2O)cc1,3
17,Cc1ccc(C(=O)N(Cc2cccc(F)c2)c2ccc(CC(=O)N[C@@H](C)c3ccccc3)cc2)cc1,89
18,c1ccc(Oc2ccc(-c3csc4nc5ccccc5n34)cc2)cc1,5
19,Cc1ccc(NC(=O)NCc2ccccn2)nc1,-12
20,CC(NCC(O)Cn1c(-c2ccccc2)c(-c2ccccc2)c2ccc3ccccc3c21)c1ccccc1 (centres undefined),86
21,O=C(Cn1cccn1)Nc1cccc(S(=O)(=O)N2CCCC2)c1,-8
22,COc1ccc(Cl)cc1CNC[C@H](C)O,4
23,CCC(CC)C(=O)Nc1cc(C2CC2)nn1-c1nc(-c2ccccc2)cc(=O)[nH]1,45
24,CCc1ccc(NC(=O)Cc2c(C)nc3nc(-c4ccccc4C)nn3c2C)cc1,3
25,CC[C@H](C)[C@H](NC(=O)c1ccc(Br)c(F)c1)C(=O)O,1

row,Compound,% Inhibition [%]
1,Cn1c(-c2ccc3c(c2)OCO3)cnc1NCc1cccc(Cl)c1,3
2,N#Cc1cccc(CNCC2(N3CCOCC3)CCCCC2)c1,-4
3,O=C(c1cccc(C(F)(F)F)c1)c1c[nH]c(C(=O)NCc2cccnc2)c1,-26
4,CC1(O)CC2CCC(C1)N2C(=O)c1cc(Br)c2c(c1)OCCO2 (centres undefined),-17
5,N#C[C@@H](C(=O)Nc1cccnc1)c1ccc(F)cn1,-2
6,O=C(c1coc(-c2ccccc2)n1)N1CCc2cc(Br)ccc21,1
7,CC(C)[C@H](NC(=O)Nc1cc(Cl)ccc1F)C(N)=O,-8
8,CCOC(=O)NCC#CCOc1ccccc1C(N)=O,-18
9,Cc1cc2n(n1)C(C(F)(F)F)CCN2C(=O)C(C)N1C(=O)C2CCCCC2C1=O (centres undefined),4
10,CC[C@H](C)n1ncc(C(=O)N2CCNCC2)c1C1CC1,-8
11,COc1ccccc1CNC(=O)c1cnn2c3c(cnc12)CCCC3,-2
12,CCCn1nnc(N(C(=O)c2cc(Br)cc(C)c2OC)C(=O)c2cc(Br)cc(C)c2OC)n1,0
13,Cn1nc(C2CC2)c2c(C(F)F)cc(C(F)F)nc21,11
14,Cc1csc(NC(=O)[C@]2(C)Oc3ccccc3NC2=O)n1,15
15,O=C(Nc1ccncc1)c1nc(N2CCCC2)ncc1Br,-9
16,Cc1ccc(CNC2CCN(C)CC2)c(OCc2ccco2)c1,3
17,Cc1ccc(NC(=O)[C@H]2CN(S(=O)(=O)C3CC3)CC23CCCCC3)c(C)c1,10
18,Cc1onc(N)c1S(=O)(=O)Nc1ccncc1,-2
19,C[C@@](CO)(NC(=O)Nc1cc(-c2ccco2)ccc1F)C1CC1,10
20,Cc1cccc(C(=O)Nc2ccc(N3CCCCCC3)cc2C(=O)O)c1,-10
21,Cc1cc(=O)n(CC(=O)Nc2ccc(Cl)c(C(F)(F)F)c2)c(-c2ccc(F)cc2)n1,0
22,O=C1COc2ccc(S(=O)(=O)N3CC[C@H]3c3ccccc3)cc2N1,-1
23,C[C@@H](CNS(=O)(=O)c1ccco1)N(C)S(=O)(=O)c1ccco1,4
24,Cc1ccc(S(=O)(=O)Nc2ccc(Br)cc2C(=O)Nc2ccc(Oc3ccc(Br)c4ccccc34)c(Cl)c2)cc1,11
25,COC(CNC(=O)OC(C)(C)C)CC(=O)NC1CC(C)CCC1C(C)C (centres undefined),-2

row,Compound,% Inhibition [%]
1,CC(=O)Nc1cccc(NC(=O)Cn2c(=O)n(CCc3cccs3)c(=O)c3ccccc32)c1,10
2,CCN(CCCC(=O)c1ccc(F)cc1)CCc1ccccc1,-9
3,COc1cc([C@H]2CC(O)=Nc3c2c(-c2ccccc2)nn3-c2ccccc2)ccc1O,11
4,O=C(O)[C@H]1CC(=O)N(c2ccc3nc(-c4cccc(F)c4)oc3c2)C1,-19
5,O=C(Nc1ccccc1)c1cccc(CN2CCN3CCOC[C@@H]3C2)c1,-15
6,Cc1cccc(C)c1NC(=O)c1cc(-c2cccc3ccccc23)[nH]n1,11
7,Cc1cccc(NC(=O)[C@H]2CCN(c3cn[nH]c(=O)c3)C2)c1,12
8,COCc1c(Br)c(C)nc(O)c1C#N,-6
9,O=C(Nc1ccccc1)c1c([O-])n(-c2ccccc2)n[n+]1C[C@@H](O)CN1CCCCC1,18
10,Cc1cc(C)cc(-n2c(=O)c3sccc3n(CC(=O)N3CCCCC3)c2=O)c1,-13
11,COc1ccc(-c2cc(C(=O)N[C@H]3CCN(c4ccc(=O)[nH]n4)C3)c(C)n2C)cc1,58
12,CC(NCCn1cccn1)C(=O)N1c2ccccc2CC1C (centres undefined),-19
13,O=C1c2ccccc2C(=O)N1Cc1cnn(CC(F)F)c1,12
14,COc1ccc(-c2cc(C(F)F)nc(N3CCN(Cc4ccccn4)CC3)n2)cc1OC,-5
15,CC(=O)N(CC[C@]1(Cc2ccccc2Cl)CCOC(C)(C)C1)Cc1ccco1,-13
16,CC(C)(C)OC(=O)N1CCC[C@H]1C(=O)n1ccnc1,3
17,Cc1ccc(NC(=O)NC(=O)Cn2ccc(=O)c3sccc32)cc1C,8
18,CCNC(=O)c1ccc(-c2nc(CS(=O)(=O)c3ccccc3)c(C)o2)cc1,-10
19,O=C1C[C@@H](c2ccc(C(F)(F)F)cc2)c2c(O)nc(N3CCN(CCO)CC3)nc2N1,5
20,CCC(C)(C)NC(=O)c1cn(CC2(O)CCN(Cc3ccccc3)CC2)nn1,16
21,O=C(Nc1[nH]c(=O)ncc1F)c1cccc2ccccc12,72
22,COc1ccc(NC(=O)C2=NN(CC(=O)Nc3cccc(OC)c3)C(=O)CC2)cc1,-4
23,Cc1cc(NC(=O)c2ccncc2)cc2c1OCCO2,-12
24,COc1ccc2c(NC(=O)Cc3c(C)noc3C)n[nH]c2c1,7
25,N#Cc1nc2c(C#N)c(N)n(CCc3ccccc3)c2nc1C#N,92

row,Compound,% Inhibition [%]
1,Cc1n[nH]c(CN(C)S(=O)(=O)Cc2cccc(C(F)(F)F)c2)n1,-12
2,Cc1cc2c(cc1C)N(CC(=O)Nc1ccc(C(F)(F)F)cc1)C(=O)CC(c1cccs1)=N2,-23
3,CC1(C)C(c2ccccc2)=NO[C@@H]1N1CCOCC1,16
4,Cc1cccc(N2CCN(C(=O)c3ccc4c(c3)C(=O)N(c3cc(C)on3)C4=O)C[C@@H]2C)c1,8
5,CC1(C)Oc2ccc(S(=O)(=O)NC3CCCCC3)cc2NC1=O,-6
6,CC(C)(C)OC(=O)N1CCN(C[C@H]2CN(c3ccc(F)cc3)C(=O)O2)CC1,-7
7,Cc1ccc(CN2CCN(C[C@@H](O)Cn3c4ccccc4n4c(=O)cc(C)c(C#N)c34)CC2)c(C)c1,96
8,O=C(c1cc2c(s1)CCCC2)N1CCC[C@H](c2nnc3ccccn23)C1,-13
9,O=C(Nc1nccs1)C1C(c2ccccc2)C1(Cl)Cl (centres undefined),-16
10,CCn1c(=O)c(N2CCN(C(=O)Nc3cccc(C)c3C)CC2)nc2ccccc21,8
11,CC(C)(C)C(=O)/C(=N\OC(=O)Nc1ccc(Cl)cc1)n1cncn1,0
12,Cc1ccc(S(=O)(=O)Nc2c(S(=O)(=O)c3ccc(C)cc3)c3nc4ccccc4nc3n2CCC(C)C)cc1,100
13,COc1ccc(-n2c(C)nn(Cc3ccccc3)c2=O)cc1,-1
14,C=CCCCNc1ccc(C(N)=O)c(F)c1,4
15,Cc1nn2c(-c3ccc(-c4ccccc4)cc3)ccnc2c1Br,9
16,O=S(=O)(c1c[nH]c2cccc(F)c12)N1CC[C@]2(CCOC2)C1,-16
17,Cc1cc2nc(C)c(=O)n(CCC(=O)NCCCN(C)C3CCCCC3)c2cc1C,11
18,CCC1(CC)CCC(NC(=O)[C@@H]2CCCCC(=O)N2)CC1,-14
19,O=C(c1ccc[n+]([O-])c1)N(Cc1ccccc1)Cc1ccccc1,1
20,Nc1ccc(Cc2nnc3n2CCC3)cc1,8
21,Cn1c(N2CCN(c3ccccn3)CC2)nc2c1c(=O)n(Cc1ccc(Cl)cc1)c(=O)n2C,8
22,CC(C)Cc1cc(C(=O)OC2CCCCCC2)[nH]n1,10
23,CN1CCCN(C(=O)[C@@H]2Cc3ccccc3C(=O)O2)CC1,-14
24,Cc1cccc(CNC(=O)NC2CCOC2c2ccc(Cl)cc2)n1 (centres undefined),-15
